Measured values: PubChem BioAssay AID504333 (National Center for Advancing Translational Sciences (NCATS), 2011)
Out of some 360,000 compounds screened, about 16,000 (4.4%) were called active. Inconclusive means that the source gave no clear call. Such entries were picked first, then a sample of the others. Calls follow the shape of the dose curve; as a rule, active = well fitted inhibition curve with a large enough effect; inconclusive = small, poorly fitted or top-dose-only effect; inactive = no such curve, though single readings can be large or run the other way. A potency beside an inconclusive call is a rough fit, not a confirmed value.
% is scaled to controls: 0 for no effect and ±100 for the full control effect; potency is read from the fitted curve at half-maximal effect; tags tell the direction and shape of the fitted curve.
Also: nearly all actives have a fitted effect of over 60% in size.

These compounds were tested against Bromodomain adjacent to zinc finger domain protein 2B (Homo sapiens) (UniProt Q9UIF8) (assay: qHTS Assay for Inhibitors of BAZ2B). Settings: AlphaScreen BAZ2B-H3K14Ac peptide displacement; activity change, negative = inhibition: at 114 µM (top of the series).
Sequence of UniProt Q9UIF8 (Q9UIF8 whole entry, looked up, the tested form may be a part): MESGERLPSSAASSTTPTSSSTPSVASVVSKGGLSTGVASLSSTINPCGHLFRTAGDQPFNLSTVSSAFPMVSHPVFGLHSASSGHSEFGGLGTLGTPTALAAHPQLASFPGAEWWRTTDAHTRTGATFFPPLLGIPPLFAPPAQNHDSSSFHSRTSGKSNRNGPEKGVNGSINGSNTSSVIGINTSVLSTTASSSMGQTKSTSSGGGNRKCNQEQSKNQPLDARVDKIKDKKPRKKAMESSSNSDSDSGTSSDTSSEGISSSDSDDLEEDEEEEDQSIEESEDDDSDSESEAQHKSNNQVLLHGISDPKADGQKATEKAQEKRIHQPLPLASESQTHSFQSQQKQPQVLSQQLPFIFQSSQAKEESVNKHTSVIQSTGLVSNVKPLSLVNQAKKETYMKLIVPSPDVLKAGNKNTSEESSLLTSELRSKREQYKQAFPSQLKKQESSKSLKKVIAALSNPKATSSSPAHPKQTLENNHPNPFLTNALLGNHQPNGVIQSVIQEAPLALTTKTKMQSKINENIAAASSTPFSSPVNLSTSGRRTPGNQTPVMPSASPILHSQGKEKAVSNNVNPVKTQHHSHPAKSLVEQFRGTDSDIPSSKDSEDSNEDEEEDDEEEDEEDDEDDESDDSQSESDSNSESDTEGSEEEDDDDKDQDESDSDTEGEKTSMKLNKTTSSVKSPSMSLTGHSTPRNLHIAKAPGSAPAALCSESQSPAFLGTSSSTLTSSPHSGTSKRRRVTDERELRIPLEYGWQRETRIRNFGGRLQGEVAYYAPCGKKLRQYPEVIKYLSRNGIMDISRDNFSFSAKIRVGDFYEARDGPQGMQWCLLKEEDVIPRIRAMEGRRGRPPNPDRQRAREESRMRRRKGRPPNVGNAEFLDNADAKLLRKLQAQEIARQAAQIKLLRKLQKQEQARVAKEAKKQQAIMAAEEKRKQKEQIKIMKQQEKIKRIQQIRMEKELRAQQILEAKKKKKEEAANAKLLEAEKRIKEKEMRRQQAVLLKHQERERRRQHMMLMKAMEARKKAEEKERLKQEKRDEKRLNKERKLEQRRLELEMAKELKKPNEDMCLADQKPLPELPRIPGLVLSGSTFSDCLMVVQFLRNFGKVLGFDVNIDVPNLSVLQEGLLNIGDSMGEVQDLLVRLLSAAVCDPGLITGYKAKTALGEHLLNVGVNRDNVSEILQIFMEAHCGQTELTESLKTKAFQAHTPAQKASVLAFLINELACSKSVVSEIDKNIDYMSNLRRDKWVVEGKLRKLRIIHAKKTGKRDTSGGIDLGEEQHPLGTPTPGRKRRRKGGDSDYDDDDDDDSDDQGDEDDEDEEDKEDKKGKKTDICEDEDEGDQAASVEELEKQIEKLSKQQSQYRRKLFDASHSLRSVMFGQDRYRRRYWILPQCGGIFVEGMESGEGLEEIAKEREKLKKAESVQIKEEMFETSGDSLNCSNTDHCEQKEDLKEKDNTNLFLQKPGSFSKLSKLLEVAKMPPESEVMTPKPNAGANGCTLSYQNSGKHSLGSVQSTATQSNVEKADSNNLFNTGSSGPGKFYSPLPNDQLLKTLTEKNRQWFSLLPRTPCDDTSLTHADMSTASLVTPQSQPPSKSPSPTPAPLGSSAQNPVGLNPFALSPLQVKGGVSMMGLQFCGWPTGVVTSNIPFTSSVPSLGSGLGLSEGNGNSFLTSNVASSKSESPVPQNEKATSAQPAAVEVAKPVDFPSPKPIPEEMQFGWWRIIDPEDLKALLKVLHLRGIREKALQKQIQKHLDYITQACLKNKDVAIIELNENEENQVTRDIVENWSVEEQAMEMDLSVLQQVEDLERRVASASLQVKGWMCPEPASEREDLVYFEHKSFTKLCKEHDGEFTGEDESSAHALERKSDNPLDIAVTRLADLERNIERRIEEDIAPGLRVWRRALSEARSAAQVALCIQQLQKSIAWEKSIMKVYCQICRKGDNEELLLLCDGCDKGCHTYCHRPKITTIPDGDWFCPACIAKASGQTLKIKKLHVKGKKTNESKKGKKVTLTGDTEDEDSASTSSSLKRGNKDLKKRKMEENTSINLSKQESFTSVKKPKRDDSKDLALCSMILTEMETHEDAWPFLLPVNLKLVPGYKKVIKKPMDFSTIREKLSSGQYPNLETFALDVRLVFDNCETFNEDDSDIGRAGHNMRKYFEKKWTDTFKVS
How it was run: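 AlphaScreen displacement of biotin-H3(5-23)K14Ac peptide (50 nM final) from BAZ2B (50 nM final) in PBS pH 7.4, 0.01% Tween-20; complex preformed 30 min RT, then compounds (top 110 uM) 30 min RT, beads 20 min dark.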
In the case of `CCn1c(/C=C/N(C(C)=O)c2ccccc2)[n+](CCCS(=O)(=O)[O-])c2cc(Cl)c(Cl)cc21`, the “activity change, negative = inhibition” value is reported as inactive: -13.4%.
With `O=C(c1ccco1)N1CCN(S(=O)(=O)N2CCOCC2)CC1` the “activity change, negative = inhibition” value was inactive: 4.76%.
With `CC1C(=O)NN=C1C(=O)N/N=C\c1ccc(O)cc1O` (centres undefined) the Potency was active: 11.2 µM.
In the case of `Cc1ccccc1OCCNc1cc(N2CCNCC2)ccc1[N+](=O)[O-]`, the Potency is reported as inconclusive: 31.6 µM [inhibitor, partial curve, poor fit].
In the case of `COc1ccc(CNC(=O)CCCc2cn(C)c3ccccc23)c(OC)c1`, the Potency is reported as inconclusive: 35.5 µM [inhibitor, partial curve].
`O=C(CC(c1ccccc1)c1cc(Br)ccc1O)NCC1(c2ccccc2)CCCC1` (centres undefined) was tested, and the Potency was inconclusive: 79.4 µM [inhibitor, single point].
For `O=C1C(=Cc2ccc(Br)o2)C(=O)c2ccccc21`, the Potency was active: 12.6 µM.
For `Cc1ncc(CO)c(/C=N/NC(=O)c2cc(Br)ccc2O)c1O`, the Potency was active: 11.2 µM.
`Cc1cccc(-n2ccnc2SCC(=O)Nc2nccs2)c1C` was tested, and the “activity change, negative = inhibition” value was inactive: -37.4%.
For `Nc1cc(=O)[nH]c(SCC(=O)Nc2cc([N+](=O)[O-])ccc2Cl)n1`, the “activity change, negative = inhibition” value was inactive: -20.2%.
With `Cc1ccc(OCc2ccc(C(=O)N3CCCC3)o2)c([N+](=O)[O-])c1` the “activity change, negative = inhibition” value was inactive: -16.9%.
For `CCc1cccc(-n2nnc(-c3nc(-c4cccs4)no3)c2N)c1`, the “activity change, negative = inhibition” value was inactive: 1.94%.
With `CCC(=O)OCCCNc1nc(-c2ccc(Cl)cc2)nc2ccccc12` the “activity change, negative = inhibition” value was inactive: 29%.
With `Cc1cc(Cn2ccnc2)c(C)cc1Cn1ccnc1` the Potency was inconclusive: 89.1 µM [inhibitor, single point].
In the case of `O=C(Cc1csc2ccccc12)NCc1ccccc1F`, the “activity change, negative = inhibition” value is reported as inactive: 0.287%.
With `CC(C)c1ccccc1OCC(O)CN1CCN(S(=O)(=O)c2ccc([N+](=O)[O-])cc2)CC1` (centres undefined) the Potency was active: 39.8 µM.
In the case of `CCN(CCn1cccn1)Cc1cn[nH]c1-c1ccc(-c2ccccc2)cc1`, the Potency is reported as inconclusive: 20 µM [inhibitor, full curve].
With `COC(=O)c1ccc(OCCOc2ccccc2)cc1` the “activity change, negative = inhibition” value was inactive: 4.67%.
`COc1ccccc1C(=O)NC(=O)Nc1c(C)cc(C)cc1C` was tested, and the “activity change, negative = inhibition” value was inactive: 1.2%.
In the case of `Cn1c(N/N=C/c2c[nH]c3ccccc23)nc2ccccc21`, the Potency is reported as active: 31.6 µM.
With `CCOC(=O)C1(Cc2ccccc2)CCN(Cc2cccn2-c2nccs2)CC1` the Potency was inconclusive: 50.1 µM [inhibitor, partial curve].
In the case of `COc1ccc2[nH]c(C(=O)O)c(CCN3C(=O)c4cccc([N+](=O)[O-])c4C3=O)c2c1`, the Potency is reported as active: 79.4 µM.
For `O=C(CSc1nncn1-c1ccccc1)NC1CCCC1`, the “activity change, negative = inhibition” value was inactive: 1.91%.
`Cc1ccc2oc3c(c(=O)c2c1)C(c1cccc(Cl)c1)N(CCCN1CCOCC1)C3=O` (centres undefined) was tested, and the “activity change, negative = inhibition” value was inactive: -0.148%.
For `Cc1nc(SCCC(=O)O)c2ccccc2n1`, the “activity change, negative = inhibition” value was inactive: 5.38%.
For `Cc1cc(/C=N/n2cnnc2)c(C)n1-c1ccc(OCc2ccc(Cl)cc2Cl)cc1`, the Potency was active: 39.8 µM.
With `Cc1ccccc1OCCNc1cc(N2CCCCC2)ccc1[N+](=O)[O-]` the Potency was inconclusive: 10 µM [inhibitor, full curve].
`CN(C)c1ccc(N=Nc2ccccc2Br)cc1` was tested, and the Potency was active: 4.47 µM.
In the case of `OCc1ccccc1N=c1ssnc1Cl`, the Potency is reported as inconclusive: 89.1 µM [inhibitor, single point].
For `O=C(CSc1nc(O)cc(=O)n1-c1ccccc1)Nc1ccc2c3c(cccc13)CC2`, the Potency was inconclusive: 79.4 µM [inhibitor, single point].
`CC(=O)Nc1ccc(N2Cc3ccccc3C2)cc1` was tested, and the Potency was active: 79.4 µM.
For `COc1ccccc1OCC(O)Cn1nc(C)cc1C` (centres undefined), the Potency was inconclusive: 89.1 µM [inhibitor, single point].
`CCNC(=S)Nn1cnc2ccccc21` was tested, and the “activity change, negative = inhibition” value was inactive: -14.4%.
With `CCN(CC)c1ccc(-n2nc3cc(C)c(NC(=O)c4ccccc4F)cc3n2)cc1` the “activity change, negative = inhibition” value was inactive: 38.4%.
`O=C(COC(=O)c1ccccn1)Nc1ncc(C(F)(F)F)cc1Cl` was tested, and the Potency was inconclusive: 79.4 µM [inhibitor, single point].
With `O=C(N/N=C/c1ccncc1)c1sc2ccccc2c1Cl` the Potency was inconclusive: 79.4 µM [inhibitor, single point].
In the case of `CCn1cc(C(=O)O)c(=O)c2cc(F)c(N3CCN(C(=S)NC(=O)c4c(OC)cccc4OC)CC3)cc21`, the Potency is reported as active: 56.2 µM.
`N=c1c2c(-c3ccccc3)c(-c3ccccc3)n(Cc3ccco3)c2ncn1Cc1ccco1` was tested, and the Potency was active: 25.1 µM.
`Cc1cnc(NCCc2ccccc2)s1` was tested, and the Potency was inconclusive: 100 µM [inhibitor, single point].
With `COc1ccc(S(=O)(=O)N2CCN(C(=O)c3cc4c(s3)CCCC4)CC2)cc1` the “activity change, negative = inhibition” value was inactive: 3.73%.
In the case of `O=C(NCc1ccccc1)C(c1ccncc1)N(C(=O)c1ccccn1)c1ccccc1` (centres undefined), the Potency is reported as active: 50.1 µM.
In the case of `O=C(CSc1nnc(COc2ccc(Cl)cc2)o1)N1CCN(c2ccccc2)CC1`, the “activity change, negative = inhibition” value is reported as inactive: -0.128%.
For `Cc1cc(C(=O)OCC(=O)N2CCN(C(=O)c3ccco3)CC2)c(C)n1-c1ccc(F)cc1`, the Potency was inconclusive: 89.1 µM [inhibitor, single point].
In the case of `CCOC(=O)c1c(C)c(-c2ccccc2)n(CC(=O)NCCc2ccc(C)cc2)c1C`, the “activity change, negative = inhibition” value is reported as inactive: 1.71%.
With `Cc1ccc(NS(=O)(=O)c2cccc3nsnc23)cc1C` the Potency was inconclusive: 44.7 µM [inhibitor, partial curve].
`C=CCNc1nc(C(=O)OCC(=O)Nc2ccccc2C(F)(F)F)cs1` was tested, and the Potency was inconclusive: 89.1 µM [inhibitor, single point].
In the case of `O=C(Nc1cccc(N=Cc2cc(Br)cc(Br)c2O)c1)c1ccco1`, the Potency is reported as inconclusive: 50.1 µM [inhibitor, partial curve].
`Cc1cc(C(=O)NNC(=S)NC(=O)/C=C/c2ccccc2Cl)n[nH]1` was tested, and the Potency was active: 22.4 µM.
With `COCc1nnc(NS(=O)(=O)c2ccc([N+](=O)[O-])cc2)s1` the Potency was inconclusive: 89.1 µM [inhibitor, single point].
With `Cc1cc(/C=C(\C#N)c2nnc(N3CCOCC3)n2-c2ccccc2)c(C)n1-c1ccccc1` the Potency was active: 50.1 µM.
`COc1cc(/C=N/NC(=O)c2ccccc2O)ccc1OCC(=O)Nc1ccccc1` was tested, and the Potency was active: 79.4 µM.
With `CCCCC1(C)OC(=O)C(=Cc2ccc(N(CC)CC)cc2)C(=O)O1` (centres undefined) the Potency was active: 56.2 µM.
In the case of `O=C(CSc1nc(-c2ccccc2)c(-c2ccccc2)[nH]1)NCC1CCCO1` (centres undefined), the Potency is reported as inconclusive: 50.1 µM [inhibitor, partial curve].
`Cc1nc(SCC(=O)Nc2c(C)n(C)n(-c3ccccc3)c2=O)c(C#N)c(C)c1C` was tested, and the “activity change, negative = inhibition” value was inactive: 9.77%.
`Cc1cccc(C(=O)OCCN2CCOCC2)c1` was tested, and the activity change, negative = inhibition was inactive: 12.8% [at 0.457 µM].
`COc1ccc(C(=O)NCc2nnc(SCC(=O)Nc3ccc4c(c3)OCO4)o2)cc1` was tested, and the Potency was inconclusive: 39.8 µM [inhibitor, full curve, poor fit].
With `CC(C)C(NC(=O)c1cccnc1)C(=O)O` (centres undefined) the “activity change, negative = inhibition” value was inactive: -1.27%.
With `O=C1CSC(=S)N1/N=C/c1ccc(Cl)c([N+](=O)[O-])c1` the Potency was active: 35.5 µM.
With `O=c1c2ccccc2nc(-c2cccc(Cl)c2)n1O` the Potency was inconclusive: 89.1 µM [inhibitor, single point].
`COc1ccc(-c2cc(C(=O)NCc3ccccc3)c3c(-c4ccccc4)[nH]nc3n2)cc1` was tested, and the “activity change, negative = inhibition” value was inactive: -14.8%.
With `CCOc1ccc(CNC(=O)C2CCN(c3nnc(C)c4c(C)n(-c5ccc(C)cc5)nc34)CC2)cc1` the Potency was active: 56.2 µM.
For `CC(C)n1c(=S)[nH]c2ccccc21`, the “activity change, negative = inhibition” value was inactive: -21.8%.
With `COC(=O)c1ccc(N=Cc2c(-c3ccccc3)[nH][nH]c2=O)cc1` the Potency was inconclusive: 79.4 µM [inhibitor, single point].
For `COc1ccccc1-c1nnc2n1N=C(C(C)(C)C)CS2`, the “activity change, negative = inhibition” value was inactive: 0.338%.
For `Cc1cc2ncn(/N=C/c3ccc([N+](=O)[O-])s3)c2cc1C`, the Potency was inconclusive: 89.1 µM [inhibitor, single point].
With `C=CCN(CC=C)C(=S)NC(=O)c1ccc(OC)cc1` the Potency was inconclusive: 44.7 µM [inhibitor, partial curve].
In the case of `CCOC(=O)C1(Cc2ccc(OC)cc2)CCN(C(=O)c2ccoc2C)CC1`, the Potency is reported as inconclusive: 89.1 µM [inhibitor, single point].
In the case of `Cc1ccc(-n2c(C)cc(/C=N/NC(=O)c3ccncc3)c2C)cc1C`, the Potency is reported as active: 50.1 µM.
`O=C(O)Cn1cnc2scc(-c3cccs3)c2c1=O` was tested, and the Potency was inconclusive: 79.4 µM [inhibitor, single point].
In the case of `COc1ccc(CCNC(=O)CS(=O)Cc2nc(-c3ccc(C)cc3)oc2C)c(OC)c1` (centres undefined), the Potency is reported as inconclusive: 79.4 µM [inhibitor, single point].
For `NC(N)=Nc1ccc(N=C(N)N)cc1`, the Potency was inconclusive: 89.1 µM [inhibitor, single point].
With `Nc1c(C(=O)Nc2ccc(Br)cc2)sc2nc(-c3ccco3)ccc12` the Potency was inconclusive: 89.1 µM [inhibitor, single point].
`COCC(=O)Nc1ccc(Nc2ccccc2)cc1` was tested, and the Potency was active: 39.8 µM.
With `COc1ccccc1OCCCN1C(=O)C(=O)c2cccc(C)c21` the Potency was inconclusive: 56.2 µM [inhibitor, partial curve, poor fit].
For `O=C(O)C1C2CCC(C2)C1C(=O)NCc1ccccn1` (centres undefined), the Potency was inconclusive: 89.1 µM [inhibitor, single point].
In the case of `O=C(NCCCc1nc2ccccc2n1Cc1ccc(Cl)cc1)c1ccco1`, the Potency is reported as inconclusive: 50.1 µM [inhibitor, partial curve].
In the case of `Cc1ccccc1NC(=O)C(c1ccccc1)C1CCCC1` (centres undefined), the Potency is reported as inconclusive: 70.8 µM [inhibitor, single point].
`NNC(=O)c1oc2nc(-c3ccccc3)cc(-c3ccco3)c2c1N` was tested, and the Potency was inconclusive: 79.4 µM [inhibitor, partial curve].
In the case of `Cc1ccc(C)c(OCC(O)CN2CCC(Cc3ccccc3)CC2)c1` (centres undefined), the “activity change, negative = inhibition” value is reported as inactive: -26.9%.
